Measured values as given in the supplement of paper PMC8728848.
The list shows a part of the results.

What was measured:
Experiment in all cases: glycan array binding signal (z-score within array); higher = stronger binding
Details in all cases: glycan notation: IUPAC condensed, linker removed
[1] = biological target: Glc(a1-4)Glc(a1-4)Glc(a1-4)Glc
In short: (§1)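 The Consortium for Functional Glycomics database supplied 3228 glycan arrays, of which those lacking an available protein sequence were dropped. The binding signal, a within-array Z-score, was averaged across arrays of the same protein sequence and across linkers. Negative scores can be read as non-binding.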

Glc(a1-6)Glc(a1-6)Glc = biological target: Glc(a1-6)Glc(a1-6)Glc
In short: as §1

[2] = biological target: Glc(a1-6)Glc(a1-6)Glc(a1-6)Glc
In short: as §1

Glc(b1-4)Glc = biological target: Glc(b1-4)Glc
In short: as §1

Glc(b1-6)Glc = biological target: Glc(b1-6)Glc
In short: as §1

GlcA(b1-3)Gal = biological target: GlcA(b1-3)Gal
In short: as §1

GlcA(b1-3)GlcNAc = biological target: GlcA(b1-3)GlcNAc
In short: as §1

GlcA(b1-6)Gal = biological target: GlcA(b1-6)Gal
In short: as §1

[3] = biological target: GlcA3S(b1-3)Gal(b1-4)GlcNAc(b1-2)Man
In short: as §1

[4] = biological target: GlcA3S(b1-3)Gal(b1-4)GlcNAc(b1-3)Gal(b1-4)Glc
In short: as §1

[5] = biological target: GlcNAc(a1-3)Gal(b1-4)GlcNAc
In short: as §1

[6] = biological target: GlcNAc(a1-4)Gal(b1-3)GlcNAc
In short: as §1

[7] = biological target: GlcNAc(a1-4)Gal(b1-4)GalNAc
In short: as §1

[8] = biological target: GlcNAc(a1-4)Gal(b1-4)GlcNAc
In short: as §1

[9] = biological target: GlcNAc(a1-4)Gal(b1-4)GlcNAc(b1-3)Gal(b1-4)Glc
In short: as §1

[10] = biological target: GlcNAc(a1-4)Gal(b1-4)GlcNAc(b1-3)Gal(b1-4)GlcNAc
In short: as §1

[11] = biological target: GlcNAc(a1-4)Gal(b1-4)GlcNAc(b1-3)Gal(b1-4)GlcNAc(b1-3)Gal(b1-4)GlcNAc
In short: as §1

[12] = biological target: GlcNAc(a1-4)Gal(b1-4)GlcNAc(b1-3)Gal(b1-4)[Fuc(a1-3)]GlcNAc(b1-3)Gal(b1-4)[Fuc(a1-3)]GlcNAc
In short: as §1

[13] = biological target: GlcNAc(a1-6)Gal(b1-4)GlcNAc
In short: as §1

[14] = biological target: GlcNAc(b1-2)Gal(b1-3)GalNAc
In short: as §1

[15] = biological target: GlcNAc(b1-2)Gal(b1-3)GlcNAc
In short: as §1

[16] = biological target: GlcNAc(b1-2)Man(a1-3)[GlcNAc(b1-2)Man(a1-6)]Man(b1-4)GlcNAc(b1-4)GlcNAc
In short: as §1

[17] = biological target: GlcNAc(b1-2)Man(a1-3)[GlcNAc(b1-2)Man(a1-6)]Man(b1-4)GlcNAc(b1-4)[Fuc(a1-6)]GlcNAc
In short: as §1

[18] = biological target: GlcNAc(b1-2)Man(a1-3)[GlcNAc(b1-4)][GlcNAc(b1-2)Man(a1-6)]Man(b1-4)GlcNAc(b1-4)GlcNAc
In short: as §1

[19] = biological target: GlcNAc(b1-2)Man(a1-3)[GlcNAc(b1-4)][GlcNAc(b1-2)Man(a1-6)]Man(b1-4)GlcNAc(b1-4)[Fuc(a1-6)]GlcNAc
In short: as §1

[20] = biological target: GlcNAc(b1-2)[GlcNAc(b1-4)]Man(a1-3)[GlcNAc(b1-2)Man(a1-6)]Man(b1-4)GlcNAc(b1-4)GlcNAc
In short: as §1

[21] = biological target: GlcNAc(b1-2)[GlcNAc(b1-4)]Man(a1-3)[GlcNAc(b1-4)][GlcNAc(b1-2)Man(a1-6)]Man(b1-4)GlcNAc(b1-4)GlcNAc
In short: as §1

[22] = biological target: GlcNAc(b1-2)[GlcNAc(b1-4)]Man(a1-3)[GlcNAc(b1-4)][GlcNAc(b1-2)[GlcNAc(b1-6)]Man(a1-6)]Man(b1-4)GlcNAc(b1-4)GlcNAc
In short: as §1

[23] = biological target: GlcNAc(b1-2)[GlcNAc(b1-4)]Man(a1-3)[GlcNAc(b1-4)][GlcNAc(b1-2)[GlcNAc(b1-6)]Man(a1-6)]Man(b1-4)GlcNAc(b1-4)[Fuc(a1-6)]GlcNAc
In short: as §1

[24] = biological target: GlcNAc(b1-2)[GlcNAc(b1-6)]Man(a1-6)[GlcNAc(b1-2)Man(a1-3)]Man(b1-4)GlcNAc(b1-4)GlcNAc
In short: as §1

[25] = biological target: GlcNAc(b1-2)[GlcNAc(b1-6)]Man(a1-6)[GlcNAc(b1-2)Man(a1-3)]Man(b1-4)GlcNAc(b1-4)[Fuc(a1-6)]GlcNAc
In short: as §1

[26] = biological target: GlcNAc(b1-2)[GlcNAc(b1-6)]Man(a1-6)[GlcNAc(b1-4)][GlcNAc(b1-2)Man(a1-3)]Man(b1-4)GlcNAc(b1-4)GlcNAc
In short: as §1

GlcNAc(b1-3)Fuc = biological target: GlcNAc(b1-3)Fuc
In short: as §1

GlcNAc(b1-3)Gal = biological target: GlcNAc(b1-3)Gal
In short: as §1

[27] = biological target: GlcNAc(b1-3)Gal(b1-3)GalNAc
In short: as §1

GlcNAc(b1-3)Gal(b1-4)Glc = biological target: GlcNAc(b1-3)Gal(b1-4)Glc
In short: as §1

[28] = biological target: GlcNAc(b1-3)Gal(b1-4)GlcNAc
In short: as §1

[29] = biological target: GlcNAc(b1-3)Gal(b1-4)GlcNAc(b1-2)Man(a1-3)[GlcNAc(b1-3)Gal(b1-4)GlcNAc(b1-2)Man(a1-6)]Man(b1-4)GlcNAc(b1-4)GlcNAc
In short: as §1

B1: MGL1 (Mus musculus), P49300 (protein)
chain: MIYENLQNSRIEEKTQEPGKAPSQSFLWRILSWTHLLLFSLGLSLLLLVVVSVIGSQNSQLRRDLGTLRATLDNTTSKIKAEFQSLDSRADSFEKGISSLKVDVEDHRQELQAGRDLSQKVTSLESTVEKREQALKTDLSDLTDHVQQLRKDLKALTCQLANLKNNGSEVACCPLHWTEHEGSCYWFSESEKSWPEADKYCRLENSHLVVVNSLEEQNFLQNRLANVVSWIGLTDQNGPWRWVDGTDFEKGFKNWAPLQPDNWFGHGLGGGEDCAHITTGGPWNDDVCQRTFRWICEMKLAKES
glycan array binding signal (z-score) [1]: -0.429
glycan array binding signal (z-score) (Glc(a1-6)Glc(a1-6)Glc): 0.293
glycan array binding signal (z-score) [2]: -0.085
glycan array binding signal (z-score) (Glc(b1-4)Glc): -0.045
glycan array binding signal (z-score) (Glc(b1-6)Glc): -0.306
glycan array binding signal (z-score) (GlcA(b1-3)Gal): -0.264
glycan array binding signal (z-score) (GlcA(b1-3)GlcNAc): -0.575
glycan array binding signal (z-score) (GlcA(b1-6)Gal): -0.259
glycan array binding signal (z-score) [3]: -0.705
glycan array binding signal (z-score) [4]: -0.103
glycan array binding signal (z-score) [5]: -0.184
glycan array binding signal (z-score) [6]: 0.26
glycan array binding signal (z-score) [7]: -0.312
glycan array binding signal (z-score) [8]: -0.528
glycan array binding signal (z-score) [9]: -0.674
glycan array binding signal (z-score) [10]: -0.817
glycan array binding signal (z-score) [11]: -0.434
glycan array binding signal (z-score) [12]: 0.82
glycan array binding signal (z-score) [13]: 1.54
glycan array binding signal (z-score) [14]: -0.302
glycan array binding signal (z-score) [15]: -0.125
glycan array binding signal (z-score) [16]: -0.508
glycan array binding signal (z-score) [17]: -0.13
glycan array binding signal (z-score) [18]: -0.58
glycan array binding signal (z-score) [19]: 0.417
glycan array binding signal (z-score) [20]: 0.185
glycan array binding signal (z-score) [21]: -0.221
glycan array binding signal (z-score) [22]: -0.306
glycan array binding signal (z-score) [23]: -0.77
glycan array binding signal (z-score) [24]: -0.276
glycan array binding signal (z-score) [25]: 0.083
glycan array binding signal (z-score) [26]: -0.349
glycan array binding signal (z-score) (GlcNAc(b1-3)Fuc): 0.112
glycan array binding signal (z-score) (GlcNAc(b1-3)Gal): -0.398
glycan array binding signal (z-score) [27]: -0.423
glycan array binding signal (z-score) (GlcNAc(b1-3)Gal(b1-4)Glc): -0.059
glycan array binding signal (z-score) [28]: 0.138
glycan array binding signal (z-score) [29]: -0.821
